Assay results as given in PubChem BioAssay AID1865 (National Center for Advancing Translational Sciences (NCATS), 2009).
Out of some 280,000 compounds screened, about 540 (0.19%) were called active. Inconclusive means that the source gave no clear call. Such entries were picked first, then a sample of the others. Calls come from the whole dose curve; as a rule, active = well fitted activation curve with a large enough effect; inconclusive = small, poorly fitted or top-dose-only effect; inactive = flat fitted curve, though single readings scatter. A potency beside an inconclusive call is a rough fit, not a confirmed value.

Assay: Quantitative High-Throughput Screen for Regulators of Epigenetic Control; note: nearly all actives have a fitted effect of over 60% in size
Settings: murine LDR cells, GFP reporter derepression, 30 h; series mostly up to 53.9 µM
How it was run: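 Readout is the number of GFP-expressing murine LDR cells, counted by cytometry following washing. Cells were treated with compound for 30 h at 37 C; the stably integrated CMV-GFP locus is normally silent.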
Potency is the fitted concentration of half-maximal effect; tags give direction and shape of the fitted curve.

| Compound | Potency |
| --- | --- |
| FC(F)(F)c1nnc(-c2ccccc2)nc1Sc1ccccc1 | inconclusive: 5.62 µM [activator, single point] |
| CCc1ccc(NS(=O)(=O)c2ccc3oc(=O)c4ncn(CC)c4c3c2)cc1 | inactive |
| COc1cc(/C=C(\C#N)c2nc3ccccc3[nH]2)ccc1OCc1ccc(F)cc1 | inconclusive: 31.6 µM [activator, single point] |
| COc1cc(N2CCCC2)c(OC)cc1/C=C(/C#N)c1ccc(Br)cc1 | active: 3.16 µM |
| Cn1nc(-c2ccccn2)nc2c(=O)n(C)c(=O)nc1-2 | inconclusive: 3.98 µM [activator, single point] |
| N#C/C(=C\c1cccc([N+](=O)[O-])c1)c1ccccn1 | inactive |
| Cc1ccc(-c2nnc(Nc3ccc(OC(F)(F)Cl)cc3)c3ccccc23)cc1S(=O)(=O)NC(C)(C)CO | inactive |
| COc1ccc2[nH]cc(C(=O)CN3CCN(C/C=C/c4ccccc4)CC3)c2c1 | active: 10 µM |
| CCOc1ccc2nc3cc(N)ccc3c(N)c2c1 | inactive |
| C=CCNC(=O)CCCOc1ccc(C)cc1 | inconclusive: 3.16 µM [activator, single point] |
| CCCCN(CCCC)CCNC(=O)Cn1nc(CC)n2c(cc3sccc32)c1=O | inactive |
| C=CCN1C(=O)/C(=C\c2ccc(OC(=O)c3ccco3)c(OC)c2)SC1=S | inconclusive: 28.2 µM [activator, single point] |
| COc1cc(/C=c2\s/c(=C(/C#N)C(=O)N3CCCC3)n(-c3ccccc3)c2=O)ccc1O | inconclusive: 22.4 µM [activator, single point] |
| COc1ccc2ccccc2c1/C=N/NC(=S)NCCN1CCOCC1 | inconclusive: 31.6 µM [activator, single point] |
| N#CC(C#N)=Cc1ccccc1OCc1ccccc1 | inconclusive: 25.1 µM [activator, single point] |
| Cc1ccc(-n2nc3c(N4CCC(C(=O)NC5CCC(C)CC5)CC4)nnc(C)c3c2C)cc1 (centres undefined) | inconclusive: 12.6 µM [activator, partial curve] |
| COCCN=C1OC(=O)N2C(=O)C3=C4[C@@H](C[C@H]5C(=O)N(c6ccccc6)C(=O)[C@H]5[C@H]4[C@@]12Cc1ccccc1)[C@H]1C(=O)N(c2ccccc2)C(=O)[C@H]1[C@H]3C | inconclusive: 5.01 µM [activator, partial curve] |
| Cc1csc2nc(COC(=O)c3cccc(NC(=O)c4cccc(Cl)c4)c3)cc(=O)n12 | inconclusive: 14.1 µM [activator, single point] |
| C/C(N)=C(/C#N)C(=O)CSc1nc2ccccc2c(=O)n1Cc1ccc(C)cc1 | inactive |
